The results in this text go back to the supplement of paper PMC9446081.

Out of some 39,000 compounds screened, about 220 (0.56%) showed activity. The list shows a part of the results.
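Also: static incubation at 37 °C against the wild-type strain, values averaged over two biological replicates.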

In this assay the test system is Escherichia coli K-12 BW25113. The assay can be described thus: relative growth (OD600 normalised to plate interquartile mean) (fraction); higher = less growth inhibition, active = 0.2 or less. The following applies: 50 µM; LB; incubation time: overnight (16-24 h).
`COc1cccc(NC(=O)N(C)C[C@H]2Oc3ncc(Br)cc3C(=O)N([C@H](C)CO)C[C@H]2C)c1`: the relative growth was inactive: 1. Under `CO[C@@H](CN(C)S(=O)(=O)c1cccc(Cl)c1)[C@H](C)CN([C@@H](C)CO)S(=O)(=O)c1ccc(Cl)cc1` stands inactive: 0.917; under `C[C@H]1CN([C@@H](C)CO)C(=O)c2cccc(NC(=O)C3CCOCC3)c2O[C@@H]1CN(C)S(=O)(=O)c1ccc(Cl)cc1`, inactive: 0.994. As to `O=C(C[C@@H]1CC[C@@H]2[C@H](COC[C@@H](O)CN2S(=O)(=O)c2ccc(Cl)cc2)O1)NCc1ccncn1`, the relative growth was inactive: 1.02. Regarding `C[C@H]1CN([C@@H](C)CO)S(=O)(=O)c2ccc(C#Cc3ccncc3)cc2O[C@H]1CN(C)C(=O)C1CCOCC1`, the relative growth was inactive: 0.969. Regarding `COCC(=O)N1CC[C@]2(CC1)CN([C@H](CO)c1[nH]c3cc(ccc3c12)OC)C(=O)Nc1ccccc1F`, the relative growth is inactive: 0.988. Under `C[C@@H]1CN([C@H](C)CO)C(=O)c2cccc(NC(=O)C3CC3)c2O[C@@H]1CN(C)S(=O)(=O)c1ccc(Cl)cc1` stands inactive: 0.924. Under `C[C@@H]1CN([C@@H](C)CO)C(=O)Cc2cc(NC(=O)Nc3ccc(C(F)(F)F)cc3)ccc2O[C@@H]1CN(C)Cc1ccc(C(=O)O)cc1` stands inactive: 0.994. In the case of `C[C@@H]1CN([C@H](C)CO)C(=O)c2cccc(NS(=O)(=O)c3cn(C)cn3)c2O[C@@H]1CN(C)Cc1ccc2c(c1)OCO2` it was inactive: 0.997. Take `C[C@H]1CN([C@@H](C)CO)S(=O)(=O)c2ccc(Br)cc2O[C@H]1CN(C)S(=O)(=O)c1ccccc1`: the relative growth is inactive: 1. Under `C[C@H](CO)N1C[C@H](C)[C@H](CN(C)S(C)(=O)=O)Oc2ccc(NC(=O)CCCCCC(=O)Nc3ccccc3N)cc2C1=O` stands inactive: 1.01. With `C[C@@H]1CN([C@H](C)CO)C(=O)c2cc(NC(=O)Cn3cnnn3)ccc2O[C@H]1CN(C)Cc1ccc(C(F)(F)F)cc1`, the relative growth was inactive: 0.995.

On to `C[C@@H]1CCCCO[C@H](CN(C)C(=O)Cc2ccccc2)[C@H](C)CN([C@H](C)CO)C(=O)c2cc(NS(=O)(=O)c3ccc(Cl)cc3)ccc2O1`, for which the relative growth was inactive: 1.02. Take `C[C@H](CO)N1C[C@H](C)[C@H](CN(C)C(=O)CCN2CCCCC2)Oc2ncc(C#CCN(C)C)cc2C1=O`: the relative growth is inactive: 0.999. In the case of `C[C@H]1CN([C@@H](C)CO)C(=O)c2cc(NC(=O)CCCCCC(=O)Nc3ccccc3N)ccc2O[C@@H]1CN(C)Cc1ccccc1` it was inactive: 1.01. Under `O=C(C[C@H]1C=C[C@H](NC(=O)c2cccnc2)[C@@H](CO)O1)NCc1ccncn1` stands inactive: 0.995.

For the molecule `CC(C(=O)O)C(=O)O`, the relative growth is inactive: 0.981. In the case of `C[C@H]1CCCCO[C@@H](CN(C)C(=O)Nc2ccccc2)[C@@H](C)CN([C@@H](C)CO)C(=O)c2cc(NC(=O)Nc3ccc(F)cc3)ccc2O1`, the relative growth is inactive: 1.02. Under `O=C(C[C@H]1C=C[C@H](NC(=O)Cc2ccccn2)[C@H](CO)O1)NCCc1ccncc1` stands inactive: 0.99; under `C[C@@H]1CN([C@H](C)CO)C(=O)Cc2cc(NC(=O)Nc3ccc4c(c3)OCO4)ccc2O[C@H]1CN(C)Cc1ccc(-c2ccccc2)cc1`, inactive: 1.02. With `Cc1noc(C)c1S(=O)(=O)N(C)C[C@H]1OCc2cnnn2CCCC(=O)N([C@@H](C)CO)C[C@H]1C`, the relative growth was inactive: 1.01.

Consider `COc1cccc(S(=O)(=O)Nc2ccc3c(c2)[C@@H]2C[C@@H](CC(=O)N4CCCCC4)O[C@H](CO)[C@@H]2O3)c1`, for which the relative growth is inactive: 0.984. In the case of `C[C@H](CO)N1C[C@H](C)[C@H](CN(C)C(=O)c2ccccc2F)Oc2cc(C#CCN(C)C)ccc2S1(=O)=O` it was inactive: 1.04; in that of `Cn1cc(CN2CCn3nnc(CO)c3C2)cn1`, inactive: 0.986. In the case of `C[C@H]1CN([C@@H](C)CO)C(=O)Cc2cc(NC(=O)NC3CCCCC3)ccc2O[C@@H]1CN(C)C(=O)Nc1cccc2ccccc12` it was inactive: 0.967; in that of `C[C@@H]1CN([C@H](C)CO)C(=O)c2cc(NS(=O)(=O)c3ccccc3)ccc2O[C@H]1CN(C)Cc1ccc(-c2ccccc2)cc1`, inactive: 1.02. In the case of `CC12C=CC(=O)C=C1CCC1C2C(O)CC2(C)C1CCC2(O)C(=O)COC(=O)CCC(=O)O` (stereo not given), the relative growth is inactive: 0.912.

`C=C1C(=O)OC2C1CCC(C)=CCCC1(C)OC21` (stereo not given): the relative growth was inactive: 0.976. Under `CN1C(=O)c2cc(NC(=O)Cc3cccs3)ccc2OC[C@H]2O[C@@H](CC(=O)NCCCN3CCOCC3)CC[C@@H]21` stands inactive: 0.983; under `C[C@@H]1CN([C@H](C)CO)S(=O)(=O)c2ccc(C#Cc3ccc(F)cc3)cc2O[C@@H]1CN(C)S(C)(=O)=O`, inactive: 1.02. As for `C[C@H](CO)N1C[C@H](C)[C@@H](CN(C)Cc2ccc(Cl)c(Cl)c2)Oc2ccc(NC(=O)NC3CCCCC3)cc2CC1=O`, the relative growth was inactive: 1.02. With `COc1ccc(S(=O)(=O)N(C)C[C@@H]2Oc3ccc(NS(=O)(=O)c4ccccc4)cc3C(=O)N([C@@H](C)CO)C[C@H]2C)cc1`, the relative growth was inactive: 1.04. As for `C[C@@H]1CCCCO[C@@H](CN(C)S(=O)(=O)c2ccccc2)[C@H](C)CN([C@@H](C)CO)C(=O)c2cc(NC(=O)NC3CCCCC3)ccc2O1`, the relative growth was inactive: 1.01. Turning to `Cc1noc(C)c1NC(=O)Nc1ccc2c(c1)C(=O)N([C@H](C)CO)C[C@H](C)[C@@H](CN(C)C(=O)C1CCCCC1)OCCCC[C@H](C)O2`, the relative growth was inactive: 1.03. In the case of `COC(=O)c1ccc(C(=O)OC)nc1` it was inactive: 1.02; in that of `C=CC(=O)NCCN1CCCCC1`, inactive: 1.04; in that of `O=C(C[C@H]1C[C@@H]2c3cc(NC(=O)NC4CCCC4)ccc3O[C@@H]2[C@H](CO)O1)NCCN1CCCCC1`, inactive: 0.969. With `C[C@@H]1CN([C@@H](C)CO)C(=O)c2cc(NS(C)(=O)=O)ccc2O[C@@H](C)CCCCO[C@@H]1CN(C)C(=O)Nc1ccc(C(F)(F)F)cc1`, the relative growth was inactive: 0.957. `C[C@@H]1CCCCO[C@@H](CN(C)CC2CCCCC2)[C@H](C)CN([C@@H](C)CO)C(=O)c2cc(NC(=O)NC3CCCCC3)ccc2O1`: the relative growth was inactive: 0.972. Under `Cc1noc(C)c1NC(=O)N(C)C[C@@H]1Oc2cc(Br)ccc2S(=O)(=O)N([C@@H](C)CO)C[C@H]1C` stands inactive: 1.01.
